Single values of this set are uncertain.
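Also: [psi-pin-] Saccharomyces cerevisiae expressing SupN fusions, induced by 100 µM Cu2SO4, selected 7 d at 30 °C without adenine and uracil, scored by deep sequencing of output versus input.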

One data set in a line: amyloid nucleation score relative to library mode (yeast Sup35 reporter selection) (log enrichment difference); higher = more amyloid nucleation; sequences are the first 22 residues of the Bri2 peptide extended by up to 12 random residues. Conditions: random library (experiment): 1;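 active = nucleation score significantly above 0 at FDR 0.05; inactive = not significantly above 0 or absent from output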. As for the experimental part: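 Random C-terminal extensions of the 22-aa Bri2 peptide by 12 NNK codons; premature stops give shorter extensions. Peptides were fused to the Sup35 nucleation domain in S. cerevisiae [psi-pin-] and selected on -ADE-URA plates for 7 d at 30 °C. The nucleation score is log(output/input), centred to the mode of each of 3 independent libraries (1 input, 3 technical output replicates), with duplicates merged. Sequences absent from the output ('random_non_nuc') were imputed with the library mode value, so they are given as censored (<). Nucleators are scores significantly >0 at FDR 0.05.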
In the case of EASNCFAIRHFENKFAVETLICAQDPTKLCRPA, the amyloid nucleation score came to 5.13. Sequence EASNCFAIRHFENKFAVETLICAQINDGVFAISK yielded an amyloid nucleation score of 5.07. As to EASNCFAIRHFENKFAVETLICAQMVLRLLVPML, the amyloid nucleation score entry was “inactive”. With EASNCFAIRHFENKFAVETLICAQSALMR, the amyloid nucleation score result is “inactive”.

In the case of EASNCFAIRHFENKFAVETLICAQSPHSPHRVVI, the amyloid nucleation score entry is “inactive”. Still for that read-out and setting: the same measure for EASNCFAIRHFENKFAVETLICAQSSKLKLLIHG: 4.49; for EASNCFAIRHFENKFAVETLICAQWIGYDVGKWG: -0.0846. With EASNCFAIRHFENKFAVETLICARALLMGDLATA, the amyloid nucleation score entry is “inactive”. The same measure, in the same setting: the same measure for EASNCFAIRHFENKFAVETLICARAR: “inactive”; for EASNCFAIRHFENKFAVETLICARCSV: “inactive”. Still for that read-out and setting: under EASNCFAIRHFENKFAVETLICARD stands “inactive”; under EASNCFAIRHFENKFAVETLICARDHRWFWSWQK, 2.41; under EASNCFAIRHFENKFAVETLICARDSFQVVKTGR, “inactive”. The same measure, in the same setting: under EASNCFAIRHFENKFAVETLICAREIGESRCLQG stands “inactive”; under EASNCFAIRHFENKFAVETLICARELFRLCSKW, “inactive”.

Take EASNCFAIRHFENKFAVETLICARGAWPVAVGTG: the amyloid nucleation score result is “inactive”.

For the sequence EASNCFAIRHFENKFAVETLICARGRQTSVLGFR, the amyloid nucleation score result was “inactive”. Regarding EASNCFAIRHFENKFAVETLICARGTKGCYHSVV, the amyloid nucleation score entry is “inactive”. On the same count and under the same terms, the same measure for EASNCFAIRHFENKFAVETLICARIGTLVKPAGG: “inactive”; for EASNCFAIRHFENKFAVETLICARIVVVQFGTWL: 1.87; for EASNCFAIRHFENKFAVETLICARKVHTFLTGGK: “inactive”.

Regarding EASNCFAIRHFENKFAVETLICARKWQGINGLRV, the amyloid nucleation score entry is “inactive”. Still for that read-out and setting: under EASNCFAIRHFENKFAVETLICARLAMQSSGRSG stands “inactive”; under EASNCFAIRHFENKFAVETLICARLAVPSAGDGL, “inactive”. Still for that read-out and setting: the same measure for EASNCFAIRHFENKFAVETLICARLCR: “inactive”; for EASNCFAIRHFENKFAVETLICARLRVSLHVGKV: “inactive”; for EASNCFAIRHFENKFAVETLICARLSPGGMEQQ: “inactive”. On the same count and under the same terms, the same measure for EASNCFAIRHFENKFAVETLICARPWAEPPHGQV: -0.0755; for EASNCFAIRHFENKFAVETLICARQAALRNRGAW: “inactive”. With EASNCFAIRHFENKFAVETLICARRGTLMSRNSP, the amyloid nucleation score result is “inactive”. Consider EASNCFAIRHFENKFAVETLICARRMRVLTIARV, for which the amyloid nucleation score result is “inactive”.

Take EASNCFAIRHFENKFAVETLICARRRVVACRRAE: the amyloid nucleation score entry was “inactive”. Same read-out and setting: the same measure for EASNCFAIRHFENKFAVETLICARRRWKVVTGGL: “inactive”; for EASNCFAIRHFENKFAVETLICARRYDKELAVC: 0.0606. Same read-out and setting: the same measure for EASNCFAIRHFENKFAVETLICARSR: “inactive”. Still for that read-out and setting: the same measure for EASNCFAIRHFENKFAVETLICARTSRAYRMRSW: “inactive”; for EASNCFAIRHFENKFAVETLICARTVYGTGCPWA: “inactive”.

EASNCFAIRHFENKFAVETLICARVA: the amyloid nucleation score entry is “inactive”. The same measure, in the same setting: the same measure for EASNCFAIRHFENKFAVETLICARVEVRWQFLGG: 0.514; for EASNCFAIRHFENKFAVETLICARVGVRVTAWGP: “inactive”. On the same count and under the same terms, the same measure for EASNCFAIRHFENKFAVETLICARVHEDHRVSSG: -0.029; for EASNCFAIRHFENKFAVETLICARVSKSTSWCGD: 4.13.

As to EASNCFAIRHFENKFAVETLICARVV, the amyloid nucleation score entry was “inactive”. On the same count and under the same terms, the same measure for EASNCFAIRHFENKFAVETLICARWCT: 3.01. Still for that read-out and setting: under EASNCFAIRHFENKFAVETLICARWRKPNSMCAH stands “inactive”; under EASNCFAIRHFENKFAVETLICAS, “inactive”; under EASNCFAIRHFENKFAVETLICASARLTYCACQR, 5.61. On the same count and under the same terms, under EASNCFAIRHFENKFAVETLICASARPPSLMRLF stands “inactive”.

Staying with this data set, now noted: random library (experiment): 2.
Take EASNCFAIRHFENKFAVETLICAQEMRNRKLCLC: the amyloid nucleation score result is “inactive”. The sequence EASNCFAIRHFENKFAVETLICAQFKNKYEGRFE gave an amyloid nucleation score of 0.598. The same measure, in the same setting: the same measure for EASNCFAIRHFENKFAVETLICAQHIDKLACWSR: 4.38. Same read-out and setting: the same measure for EASNCFAIRHFENKFAVETLICAQLLISFNVQSG: “inactive”; for EASNCFAIRHFENKFAVETLICAQLQTRSRPWLT: “inactive”. Sequence EASNCFAIRHFENKFAVETLICAQPTCFIQIVGS displayed an amyloid nucleation score of 4.23. The same measure, in the same setting: the same measure for EASNCFAIRHFENKFAVETLICAQVGFSIVAVLV: 0.371; for EASNCFAIRHFENKFAVETLICAQVHMFYPYSPL: “inactive”; for EASNCFAIRHFENKFAVETLICAQYSNCGANSTK: 1.26. Regarding EASNCFAIRHFENKFAVETLICAR, the amyloid nucleation score result is “inactive”. In turn, EASNCFAIRHFENKFAVETLICARCSPSLQEG came in with an amyloid nucleation score of -0.0953.

Turning to EASNCFAIRHFENKFAVETLICARCTWSACALDC, the amyloid nucleation score is 1.26.

In the case of EASNCFAIRHFENKFAVETLICARDVPIMKYSAQ, the amyloid nucleation score stood at 1.85. On the same count and under the same terms, under EASNCFAIRHFENKFAVETLICARF stands “inactive”; under EASNCFAIRHFENKFAVETLICARFIRGRVPFLW, “inactive”. On the same count and under the same terms, the same measure for EASNCFAIRHFENKFAVETLICARGDKLYQGKES: “inactive”; for EASNCFAIRHFENKFAVETLICARGYCASCVKLP: 2.16. The same measure, in the same setting: the same measure for EASNCFAIRHFENKFAVETLICARNAKTSFILHV: -0.077; for EASNCFAIRHFENKFAVETLICARPIYFFRSMHA: 5.28. EASNCFAIRHFENKFAVETLICARSCVKAGKLWG: the amyloid nucleation score entry was “inactive”. On the same count and under the same terms, under EASNCFAIRHFENKFAVETLICARYQRSACWFCM stands “inactive”.

The data set is the same for the next values; noted with them: random library (experiment): 3.
For EASNCFAIRHFENKFAVETLICAQCSWRCKGITP, the amyloid nucleation score amounted to 4.08.

EASNCFAIRHFENKFAVETLICAQHRSRCYRM: the amyloid nucleation score amounted to 4.05. Same read-out and setting: the same measure for EASNCFAIRHFENKFAVETLICAQPRTV: “inactive”; for EASNCFAIRHFENKFAVETLICAQRKAGGKERWS: “inactive”. Regarding EASNCFAIRHFENKFAVETLICAQRWPVA, the amyloid nucleation score result is “inactive”. Take EASNCFAIRHFENKFAVETLICARAEWRSSREKE: the amyloid nucleation score was 3.07.

For the sequence EASNCFAIRHFENKFAVETLICARAFMGLVRAAD, the amyloid nucleation score is -0.0612.

Turning to EASNCFAIRHFENKFAVETLICARCATYVVLFGY, the amyloid nucleation score entry is “inactive”. On the same count and under the same terms, under EASNCFAIRHFENKFAVETLICARDTARRLRISR stands “inactive”. On the same count and under the same terms, under EASNCFAIRHFENKFAVETLICARFRVRMLISGM stands “inactive”. On the same count and under the same terms, the same measure for EASNCFAIRHFENKFAVETLICARGGTGYCRR: 2.41; for EASNCFAIRHFENKFAVETLICARGLLWVEVRSH: “inactive”; for EASNCFAIRHFENKFAVETLICARHASVASSVLG: “inactive”. With EASNCFAIRHFENKFAVETLICARKYAWHLRPCE, the amyloid nucleation score is 0.454. On the same count and under the same terms, under EASNCFAIRHFENKFAVETLICARLAWIASEVT stands “inactive”. As for EASNCFAIRHFENKFAVETLICARLKQCVKGSLL, the amyloid nucleation score entry is “inactive”. As to EASNCFAIRHFENKFAVETLICARMAQLHWLRR, the amyloid nucleation score result is “inactive”. On the same count and under the same terms, the same measure for EASNCFAIRHFENKFAVETLICARPCHRCDTCGR: 0.59. Still for that read-out and setting: under EASNCFAIRHFENKFAVETLICARPGVVWVTPGW stands 3.76. Still for that read-out and setting: the same measure for EASNCFAIRHFENKFAVETLICARQGLGFSCYKM: 3.35; for EASNCFAIRHFENKFAVETLICARQRRFGAKRRW: “inactive”; for EASNCFAIRHFENKFAVETLICARQSPKTSMIRF: 0.714.

Take EASNCFAIRHFENKFAVETLICARRCSSFRIGKS: the amyloid nucleation score entry was “inactive”. Still for that read-out and setting: the same measure for EASNCFAIRHFENKFAVETLICARSLIGLHVEVL: “inactive”; for EASNCFAIRHFENKFAVETLICARSVNGRFRWVR: 3.45; for EASNCFAIRHFENKFAVETLICARVLARQSKVER: “inactive”.

For EASNCFAIRHFENKFAVETLICARVSETFGLFGV, the amyloid nucleation score entry is “inactive”. On the same count and under the same terms, under EASNCFAIRHFENKFAVETLICARVSWWNAWCVA stands 0.621; under EASNCFAIRHFENKFAVETLICARVVMWWGNSGA, “inactive”; under EASNCFAIRHFENKFAVETLICARWPREVGRSIG, “inactive”.

(Values after the supplement of paper PMC12067230.)
